From PubChem BioAssay AID360 (National Center for Advancing Translational Sciences (NCATS), 2006)
In all, about 48,000 compounds went through this assay and about 550 (1.1%) were called active. Another 4% or so got no clear call; they are omitted. Cut-off read from the data, not from the text of the source: active = potency below about 15 µM; inconclusive = mostly about 16 µM to 33 µM; inactive = weaker than that. The list shows a part of the results.

target: Lysosomal acid glucosylceramidase (Homo sapiens) (UniProt P04062); experiment: Glucocerebrosidase; settings: purified enzyme, resorufin glucoside fluorescence (screen aimed at inhibitors), 20 min;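 note: the screen sought inhibitors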
UniProt P04062, sequence (P04062 whole entry, looked up): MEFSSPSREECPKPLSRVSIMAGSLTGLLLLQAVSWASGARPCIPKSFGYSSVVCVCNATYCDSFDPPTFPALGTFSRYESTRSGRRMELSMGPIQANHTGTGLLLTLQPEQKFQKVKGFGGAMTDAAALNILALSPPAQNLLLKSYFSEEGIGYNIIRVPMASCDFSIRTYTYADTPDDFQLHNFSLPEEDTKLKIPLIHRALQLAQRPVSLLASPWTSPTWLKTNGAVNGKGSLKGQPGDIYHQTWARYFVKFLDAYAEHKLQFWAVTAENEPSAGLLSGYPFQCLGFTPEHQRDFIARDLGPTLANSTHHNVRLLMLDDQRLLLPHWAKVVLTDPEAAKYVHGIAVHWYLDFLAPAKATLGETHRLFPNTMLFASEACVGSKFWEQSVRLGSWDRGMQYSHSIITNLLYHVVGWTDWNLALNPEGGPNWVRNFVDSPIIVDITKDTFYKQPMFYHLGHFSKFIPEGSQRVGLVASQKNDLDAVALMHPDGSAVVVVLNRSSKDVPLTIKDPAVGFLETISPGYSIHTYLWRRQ
Summary of the method: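 Wild-type enzyme at 0.2 nM final in 50mM citric acid/KH2PO4, 10mM sodium taurocholate, 0.01% tween-20, pH 5.9, with resorufin beta-D-glucopyranoside at 30 uM final. Compounds titrated, 20 min at RT, red fluorescence read; AC50 from titration.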
Potency is the fitted concentration of half-maximal effect.

| SMILES | Potency |
| --- | --- |
| COc1ccc(N=c2oc3cc(O)ccc3cc2C(=O)NCC2CCCO2)cc1 (stereo not drawn) | inactive: > 76.9 µM |
| Cc1ccc(OCC(=O)NCc2ccccn2)cc1 | inactive: > 76.9 µM |
| Cc1ccc(C)n1CCN1CCN(C(=O)c2ccco2)CC1 | inactive |
| Cc1nc(N2CCc3ccccc3C2)[nH]c(=O)c1CCC(C)C | active: 5.28 µM |
| Cc1nnc2n(Cc3ccccc3)c(=O)c3c4c(sc3n12)CCCC4 | inactive: > 76.9 µM |
| CCCOC(=O)c1sc2nc3c(cc2c1N)C(=O)CCC3 | inactive: > 76.9 µM |
| CC(Nc1cc(=O)n(C)c(=O)[nH]1)c1ccccc1 (stereo not drawn) | inactive: > 76.9 µM |
| Cc1cc(C)c(C#N)c(SCC(=O)Nc2ccccc2C(N)=O)n1 | inactive: > 76.9 µM |
| O=C(CCn1c(=O)[nH]c2ccccc2c1=O)NCCCN1CCN(c2cccc(Cl)c2)CC1 | inactive: > 76.9 µM |
| CCOC(=O)c1csc(NC(=O)c2ccc(S(=O)(=O)N(C)C)cc2)n1 | inactive: > 76.9 µM |
| Cc1cc(=O)oc2cc(OCC(=O)NCCCN3CCOCC3)ccc12 | inactive: > 76.9 µM |
| O=C(CN(Cc1ccco1)S(=O)(=O)c1cccs1)Nc1ccccc1C(F)(F)F | inactive: > 76.9 µM |
| Cc1ccc(-c2nnc(N(C)C(=O)c3ccncc3)s2)cn1 | inactive: > 76.9 µM |
| O=C(CN1C(=O)C2CC=C(Cl)CC2C1=O)N1CCOCC1 (stereo not drawn) | inactive: > 76.9 µM |
| CC(C)Oc1ccccc1C1CC(=O)Nc2cc3c(cc21)OCCO3 (stereo not drawn) | inactive: > 76.9 µM |
| COc1ccc(OC)c(S(=O)(=O)N(C)CC(=O)Nc2ccccc2OC)c1 | inactive: > 76.9 µM |
| Cn1c(NC(=O)c2cccnc2)nc2ccccc21 | inactive: > 76.9 µM |
| CC(=O)Nc1cc2c(nc1C)nc(C)n2Cc1ccc(Br)cc1 | inactive: > 76.9 µM |
| C/C(Sc1nnc(Cc2ccccc2)o1)=C(/O)c1ccccc1 | inactive: > 76.9 µM |
| O=C1CC(N2CCSCC2)C(=O)N1CCc1ccccc1 (stereo not drawn) | inactive: > 76.9 µM |
| Cn1c(=O)n(C)c2cc(/C=N/n3cnnc3)ccc21 | inactive: > 76.9 µM |
| COC(=O)CSc1nnc(CNc2ccc(Cl)cc2)n1Cc1ccccc1 | inactive: > 76.9 µM |
| CCOC(=O)C1C(=O)NC(N2CCOCC2)=NC1C(C)C (stereo not drawn) | inactive: > 76.9 µM |
| CCc1ccc2nc(NC(=O)CSCc3c(C)noc3C)sc2c1 | inactive: > 76.9 µM |

| SMILES | Potency |
| --- | --- |
| CCC(=O)Nc1cccc(C(=O)c2ccccc2)c1 | inactive: > 76.9 µM |
| Cc1onc(-c2ccccc2Cl)c1C(=O)Nc1cccc(-c2nc3ncccn3c2C)c1 | inactive |
| Cc1cc(C)c2c(CC(=O)Nc3nccs3)coc2c1 | inactive: > 76.9 µM |
| COc1ccc(CCNC(=O)c2ccc3c(c2)NC(=O)C(N2CCOCC2)S3)cc1OC (stereo not drawn) | inactive: > 76.9 µM |
| CN=C(Nc1cc(C)nn1-c1ccccc1)c1ccccc1 | inactive: > 76.9 µM |
| CCc1sc(NS(C)(=O)=O)nc1-c1ccccc1 | inactive: > 76.9 µM |
| CCCC(=O)Nc1ccc(C(=O)O)cc1NC(=O)CCC | inactive: > 76.9 µM |
| CCN(CC)CCCN1C(=O)C(O)=C(C(=O)c2cc3cccc(OC)c3o2)C1c1ccncc1 (stereo not drawn) | inactive: > 76.9 µM |
| Cc1cccc(C)c1OCc1nnc(SCC(=O)Nc2nccs2)n1-c1ccccc1 | inactive: > 76.9 µM |
| CCCn1nnnc1SCC(=O)NCc1ccc(OC)cc1 | inactive: > 76.9 µM |
| CC(=O)c1ccc(N2CCN(C(=O)c3cc(C)on3)CC2)cc1 | inactive: > 76.9 µM |
| Cc1coc(C)c1C(=O)CC1(O)C(=O)N(Cc2ccccc2)c2ccccc21 (stereo not drawn) | inactive: > 76.9 µM |
| CC1(C)C(N(O)C(=O)Nc2ccccc2)N(c2cccc(Cl)c2)C(=O)N1O (stereo not drawn) | inactive: > 76.9 µM |
| Cc1cccc(OCC(=O)OCC(=O)c2c(N)n(C)c(=O)n(C)c2=O)c1 | inactive: > 76.9 µM |
| CC(C)CCNc1nc2c(c(=O)n(Cc3cccc(F)c3)c(=O)n2C)n1C | inactive: > 76.9 µM |
| N#Cc1cn(CC(=O)N2CCCC2)c2ccccc12 | inactive: > 76.9 µM |
| Cc1csc(NC(=O)NC2(C(F)(F)F)Oc3ccccc3O2)n1 | inactive: > 76.9 µM |
| Cn1nc(C(=O)N2CCCC2)c2ccccc2c1=O | inactive: > 76.9 µM |
| COc1ccc(NC(=O)COC(=O)c2ccc(N3CCCC3=O)cc2)cc1OC | inactive: > 76.9 µM |
| CC(C)(C)c1nnc(NC(=O)C2CCN(c3ncccn3)CC2)s1 | inactive: > 76.9 µM |
| Cc1cnc(C(=O)OCC(=O)NC(=O)NC(C)C)cn1 | inactive: > 76.9 µM |
| CC(C)c1ccc(NC(=O)NC2CCCCC2)cc1 | inactive: > 76.9 µM |
| COc1ccc(OC)c(C(=O)COC(=O)c2ccc(C)o2)c1 | inactive: > 76.9 µM |
| COc1ccc(C2(CNC(=O)c3ccc(Br)o3)CCOCC2)cc1 | inactive: > 76.9 µM |

| SMILES | Potency |
| --- | --- |
| COC(=O)C1=C(C)N(c2ccc(Cl)c(Cl)c2)C(=O)C1 | inactive: > 76.9 µM |
| CCOc1ccc(N2CCn3c2nc2c3c(=O)n(CCc3ccccc3)c(=O)n2C)cc1 | inactive: > 76.9 µM |
| Cc1ccc(CS(=O)(=O)CCC(=O)NCc2ccccn2)cc1 | inactive: > 76.9 µM |
| Cc1cc(C(=O)NCc2cccs2)c(C)o1 | inactive: > 76.9 µM |
| CC(=O)OC1C(OC(C)=O)N(C(C)=O)C(=O)N1C(C)=O (stereo not drawn) | inactive: > 76.9 µM |
| CCOc1ccc(Cn2c(SCCCCC#N)nc3c2c(=O)n(C)c(=O)n3C)cc1OCC | inactive: > 76.9 µM |
| Cn1c(=O)c2c(nc(NCCNC(=O)c3ccco3)n2Cc2ccc(Cl)cc2Cl)n(C)c1=O | inactive: > 76.9 µM |
| CC1=C(C#N)C(=O)N(C)C(C)(C)C1 | inactive: > 76.9 µM |
| Cc1ccc(-c2nn[nH]n2)cc1 | inactive: > 76.9 µM |
| COc1cc(OC)cc(-c2cc3nc4c(c(N5CCN(c6cnccn6)CC5)n3n2)CCCC4)c1 | inactive |
| Cc1ccccc1-c1nc2cc(N)ccc2o1 | inactive: > 76.9 µM |
| Clc1ccc2nc(N3CCCCC3)sc2c1 | inactive: > 76.9 µM |
| c1ccc(-c2nnc(CN3CCCc4ccccc43)o2)cc1 | inactive: > 76.9 µM |
| COc1ccc(Cc2nnc(SCC(=O)NCC3CCCO3)o2)cc1 (stereo not drawn) | inactive: > 76.9 µM |
| O=C(Cn1cccc1C(=O)c1ccccc1)NCc1cccs1 | inactive: > 76.9 µM |
| CCCc1nc2sc3ccccc3c(=O)c2c(=O)n1Cc1ccco1 | inactive: > 76.9 µM |
| O=c1cc(CN2CCN(c3ccc(F)cc3)CC2)nc2sccn12 | inactive: > 76.9 µM |
| CCN(CC)S(=O)(=O)c1ccc(Cl)c(C(=O)Nc2nncs2)c1 | inactive: > 76.9 µM |
| Cc1cc(C(=O)N2CCN(C/C=C/c3ccccc3)CC2)cs1 | inactive: > 76.9 µM |
| CCC(C)N1C(=O)c2ccccc2C1C(=O)NC1CCCCCC1 (stereo not drawn) | inactive: > 76.9 µM |
| CCC(c1c(C)[nH]oc1=O)c1c(C)[nH]oc1=O | inactive: > 76.9 µM |
| CC(C(=O)c1ccccc1)n1cnc2ccccc2c1=O (stereo not drawn) | inactive: > 76.9 µM |
| Cc1nn(C)c(C)c1NC(=O)CN1CCC(O)(c2ccc3c(c2)OCO3)CC1 | inactive: > 76.9 µM |
| CCN(CC)C(=O)N1CCC(NC(=O)c2ccccc2)CC1 | inactive: > 76.9 µM |

| SMILES | Potency |
| --- | --- |
| CCC(C)NC(=O)c1n[nH]c(=O)c2ccccc12 (stereo not drawn) | inactive: > 76.9 µM |
| Cc1cc2c(s1)c1cnn(CC(=O)NCCc3ccccc3)c(=O)c1n2C | inactive: > 76.9 µM |
| CSCCC(NC(=O)c1cc(CC(C)C)oc1C)C(=O)O (stereo not drawn) | inactive: > 76.9 µM |
| Cc1ccc(S(=O)(=O)NCCNC(=O)c2ccccc2)cc1 | inactive: > 76.9 µM |
| CC(=O)Cc1nsc(NC(=O)c2cc(-c3cccc(C(F)(F)F)c3)oc2C)n1 | inactive: > 76.9 µM |
| Cc1nc(NS(=O)(=O)c2cccs2)c2c3c(sc2n1)CCC3 | inactive: > 76.9 µM |
| CC(C)(C)n1ncc2c(=O)n(CC(=O)NCc3ccc(F)cc3)cnc21 | inactive: > 76.9 µM |
| O=C1COc2ccc(C(=O)NCc3ccco3)cc2N1 | inactive: > 76.9 µM |
| CCSc1cc(C2C(C#N)=C(N)OC(C)=C2C(=O)OC)c(C)o1 (stereo not drawn) | inactive: > 76.9 µM |
| CC1CCN(CCCNC(=O)c2coc3nc4ccccc4nc23)CC1 | inactive: > 76.9 µM |
| CC(=O)C1=C(O)C(=O)N(CCc2c[nH]c3ccccc23)C1c1ccc(O)cc1 (stereo not drawn) | inactive: > 76.9 µM |
| CC(=O)NCC(=O)OCC(=O)Nc1ccc(C(C)=O)cc1 | inactive: > 76.9 µM |
| O=C(NCCCC(=O)N1CCOCC1)c1cccnc1 | inactive: > 76.9 µM |
| O=C(NC1CCCCC1)C1CCN(S(=O)(=O)N2CCOCC2)CC1 | inactive: > 76.9 µM |
| COc1ccccc1CNC(=O)C1CC(=O)N(c2ccc(C)c(C)c2)C1 (stereo not drawn) | inactive: > 76.9 µM |
| CC1=CC(C)(C)N2C(=O)C3(SCC(=O)N3c3ccc(O)cc3)c3cc(C)cc1c32 (stereo not drawn) | inactive: > 76.9 µM |
| Cc1c(C(=O)N2CCOCC2)[nH]c2ccc(OCc3ccccc3)cc12 | inactive: > 76.9 µM |
| O=C(Nc1c2c(nn1-c1ccc(Cl)cc1)CS(=O)(=O)C2)c1ccc2c(c1)OCO2 | inactive: > 76.9 µM |
| COC(=O)c1ccccc1NS(=O)(=O)c1ccc(O)c(C(=O)O)c1 | inactive: > 76.9 µM |
| CCCCN1CC(O)=C(c2nc3ccccc3[nH]2)C1=N | inactive: > 76.9 µM |
| Cc1ccc(S(=O)(=O)Nc2ccccc2C(N)=O)cc1 | inactive: > 76.9 µM |
